{
  "source": "PubChem BioAssay AID1508624",
  "about": "(National Center for Advancing Translational Sciences (NCATS), 2021)",
  "note": "“And” between values parts separate entries of the source, which are not always exact repeats. Identical values can stand only once. Out of some 48,000 compounds screened, about 120 (0.25%) were called active. About 4% were inconclusive and are not listed. Calls follow the shape of the dose curve; as a rule, active = well fitted activation curve with a large enough effect; inconclusive = small, poorly fitted or top-dose-only effect, or another doubt; inactive = no such curve, though single readings can be large or run the other way. The list shows a part of the results.",
  "data": [
    {"test": "Primary qHTS for Identification of Small Molecule Activators of Huntingtin-Antisense Promoter Activity; also: nearly all actives have a fitted effect of over 55% in size", "conditions": "HEK293 HTT-AS promoter firefly luciferase reporter, 24 h; at 57.5 µM (top of the series) unless noted", "summary_of_the_method": "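HEK293 Fluc reporter, 2,500 cells/well, 24 h pre-culture; cpds up to 57.5 uM final, 24 h 37 degrees C; Dual-Glo, 10 min RT; normalized vehicle = 0%, zero RLU = -100%.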", "values": [
      {"compound": "CCCSP(=O)(OCC)SCCC", "activity change, positive = activation": "inactive: -5.15% [at 116 µM]"},
      {"compound": "Cc1c(Cl)c(=O)oc2cc(OP(=O)(OCCCl)OCCCl)ccc12", "activity change, positive = activation": "inactive: -15%"},
      {"compound": "O=C(Nc1ccc2c(c1)OCCO2)c1cccn(Cc2ccccc2)c1=O", "activity change, positive = activation": "inactive: 11.7%"},
      {"compound": "CC[N+]1(CCOC(=O)C(O)(c2ccccc2)c2ccccc2)CCCCC1", "activity change, positive = activation": "inactive: -0.986%"},
      {"compound": "C[N+]1(C)[C@@H]2CC[C@H]1CC(OC(=O)C(CO)c1ccccc1)C2", "note": "(some centres not stated)", "activity change, positive = activation": "inactive: -15.1%"},
      {"compound": "Cc1ccc(-c2nc(CN3C(=O)CN=C(c4ccccc4Cl)c4cc(Cl)ccc43)c(C)o2)cc1", "activity change, positive = activation": "inactive: -15.1% [at 57.5 µM, percent change from vehicle, -100% = no light]"},
      {"compound": "Nc1ccccc1", "activity change, positive = activation": "inactive: -0.652%"},
      {"compound": "O=C1CC(c2ccc(C(F)(F)F)cc2)c2c(c3ccccc3oc2=O)O1", "note": "(configuration not stated)", "activity change, positive = activation": "inactive: -7.2%"},
      {"compound": "Cc1cccc(Cn2cccc(C(=O)Nc3nnc(C)s3)c2=O)c1", "activity change, positive = activation": "inactive: -9.2% [at 57.5 µM, percent change from vehicle, -100% = no light]"},
      {"compound": "COc1cc(CC(C)N)cc2c1OCO2", "note": "(configuration not stated)", "activity change, positive = activation": "inactive: -12% [at 116 µM]"},
      {"compound": "N#Cc1cc2c(nc1SCC(=O)Nc1ccc(F)c(Cl)c1)C1CCN2CC1", "activity change, positive = activation": "inactive: -10.9% [at 57.5 µM, percent change from vehicle, -100% = no light]"},
      {"compound": "CCN[C@@H](C)Cc1ccccc1", "activity change, positive = activation": "inactive: -7.13% [at 116 µM]"},
      {"compound": "CCCN1CCC[C@@H]2Cc3nc(N)ncc3C[C@H]21", "activity change, positive = activation": "inactive: -2.45%"},
      {"compound": "CCO[C@H]1O[C@@H]2OC3(C)CC[C@H]4[C@H](C)CC[C@@H]([C@H]1C)[C@@]24OO3", "activity change, positive = activation": "inactive: -13.6%"},
      {"compound": "Cc1ccccc1-n1c(Cn2cnc3c(N)ncnc32)nc2cccc(C)c2c1=O", "activity change, positive = activation": "inactive: -30.3%"},
      {"compound": "O=C1CC(c2ccc(F)cc2)c2c(c3ccccc3oc2=O)O1", "note": "(configuration not stated)", "activity change, positive = activation": "inactive: 0.362% [at 57.5 µM, percent change from vehicle, -100% = no light]"},
      {"compound": "COCC1(CO)C(=O)C2CCN1CC2", "note": "(configuration not stated)", "activity change, positive = activation": "inactive: -8.7%"},
      {"compound": "COc1ccc(CCNCc2ccc3c(c2)n(C)c(=O)n3C)cc1", "activity change, positive = activation": "inactive: -10.5% [at 57.5 µM, percent change from vehicle, -100% = no light]"},
      {"compound": "O=C(Nc1ccc(Br)cc1C(=O)c1ccccc1Cl)c1ccccc1F", "activity change, positive = activation": "inactive: -11.1% [at 57.5 µM, percent change from vehicle, -100% = no light]"},
      {"compound": "CC(C)(C)[C@]1(O)C[C@@H]2OC(=O)C[C@@]23C(=O)O[C@@H]2OC(=O)[C@H](O)C213", "note": "(some centres not stated)", "activity change, positive = activation": "inactive: -10%"},
      {"compound": "CC[C@H](O)C(C[C@H](C)N(C)C)(c1ccccc1)c1ccccc1", "activity change, positive = activation": "inactive: -50.1% [at 116 µM]"},
      {"compound": "CCOc1ccc(NC(=O)c2cccn(Cc3cccc(Cl)c3)c2=O)cc1", "activity change, positive = activation": "inactive: -33.5%"},
      {"compound": "CC(Cc1ccc(O)cc1)NCC(O)c1cc(O)cc(O)c1", "note": "(configuration not stated)", "activity change, positive = activation": "inactive: -7.91%"},
      {"compound": "Cc1oc(-c2ccccc2Cl)nc1CN1C(=O)CN=C(c2ccccc2)c2cc(Cl)ccc21", "activity change, positive = activation": "inactive: -5.59% [at 57.5 µM, percent change from vehicle, -100% = no light]"},
      {"compound": "CS(=O)(=O)c1ccc(C(=O)C2C(=O)CCCC2=O)c([N+](=O)[O-])c1", "activity change, positive = activation": "inactive: 2.98% [at 116 µM]"},
      {"compound": "COc1ccc(NC(=O)CCc2nc(C3=CCN(Cc4cccc(Cl)c4)CC3)no2)cc1OC", "activity change, positive = activation": "inactive: -25.5%"},
      {"compound": "Cc1ccc(-n2nc(C)c3c2NC(=O)CSC3c2ccc(O)cc2)cc1Cl", "note": "(configuration not stated)", "activity change, positive = activation": "inactive: -32.1% [at 57.5 µM, percent change from vehicle, -100% = no light]"},
      {"compound": "O=c1c2ccccc2nc(/C=C/c2ccccc2O)n1-c1ccc(Br)cc1", "activity change, positive = activation": "inactive: -38.7%"},
      {"compound": "CCCC12CN3CC(C)(CN(C1)C3c1ccccn1)C2=O", "note": "(configuration not stated)", "activity change, positive = activation": "inactive: 3.3% [at 57.5 µM, percent change from vehicle, -100% = no light]"},
      {"compound": "O=C1C(I)=CC(=C(c2cc(I)c(O)c(I)c2)c2ccccc2C(=O)O)C=C1I", "activity change, positive = activation": "inactive: -24.1%"},
      {"compound": "COc1ccc(NC(C)=O)cc1NC(=O)c1cccn(Cc2ccccc2)c1=O", "activity change, positive = activation": "inactive: 10.4% [at 57.5 µM, percent change from vehicle, -100% = no light]"},
      {"compound": "CC[C@H]1C[C@H]2[C@@H]3CCC4=CC(=O)CC[C@@H]4[C@H]3CC[C@]2(C)[C@H]1O", "activity change, positive = activation": "inactive: -4.97%"},
      {"compound": "Cc1nnc(NC(=O)c2cccn(Cc3cccc([N+](=O)[O-])c3)c2=O)s1", "activity change, positive = activation": "inactive: -17.8% [at 57.5 µM, percent change from vehicle, -100% = no light]"},
      {"compound": "C[N+]1(CCC(C(N)=O)(c2ccccc2)c2ccccc2)CCCCC1", "activity change, positive = activation": "inactive: 1.7%"},
      {"compound": "c1ccc2c(c1)Sc1ccccc1N2CC1CN2CCC1CC2", "note": "(configuration not stated)", "activity change, positive = activation": "inactive: -52.8%"},
      {"compound": "CC(Cc1ccc2c(c1)OCO2)NO", "note": "(configuration not stated)", "activity change, positive = activation": "inactive: 0.923% [at 116 µM]"},
      {"compound": "COC(C)(C)CCCC(C)C/C=C/C(C)=C/C(=O)OC(C)C", "note": "(configuration not stated)", "activity change, positive = activation": "inactive: 0.341% [at 57.5 µM, percent change from vehicle, -100% = no light]"},
      {"compound": "O=S(=O)(CC1CS1)c1ccc(Oc2ccccc2)cc1", "note": "(configuration not stated)", "activity change, positive = activation": "inactive: 6.79%"},
      {"compound": "CCOc1ccccc1CN(CCc1ccc2c(c1)OCO2)Cc1ccc(CC)cc1", "activity change, positive = activation": "inactive: -22.7% [at 57.5 µM, percent change from vehicle, -100% = no light]"},
      {"compound": "CSc1ncc(C(=O)Nc2ccc(Cl)cc2C(=O)c2ccccc2)c(C)n1", "activity change, positive = activation": "inactive: -21.1% [at 57.5 µM, percent change from vehicle, -100% = no light]"},
      {"compound": "CC(C)(C)c1ccc(OCC(=O)Nc2ccc(Cl)cc2C(=O)c2ccccc2)cc1", "activity change, positive = activation": "inactive: -6.75% [at 57.5 µM, percent change from vehicle, -100% = no light]"},
      {"compound": "C[C@]12Cc3cn[nH]c3C[C@@H]1CC[C@@H]1[C@H]2CC[C@@]2(C)[C@H]1CC[C@]2(C)O", "activity change, positive = activation": "inactive: -8.73%"},
      {"compound": "Cc1ccc(Cn2cccc(C(=O)Nc3nnc(C)s3)c2=O)cc1", "activity change, positive = activation": "inactive: -10.1% [at 57.5 µM, percent change from vehicle, -100% = no light]"},
      {"compound": "CCN(CC)C(=O)c1ccc(NC(=O)Cn2nc(-c3ccc(C)cc3)c3ccccc3c2=O)cc1", "activity change, positive = activation": "inactive: 4.1% [at 11.5 µM]"},
      {"compound": "O=[N+]([O-])c1c(Cl)c(Cl)cc(Cl)c1Cl", "activity change, positive = activation": "inactive: -5.49% [at 116 µM]"},
      {"compound": "Cc1ccc(N=CN(C)C=Nc2ccc(C)cc2C)c(C)c1", "activity change, positive = activation": "inactive: 6.28%"},
      {"compound": "CC(C)CC(N(C)C)C1(c2ccc(Cl)cc2)CCC1", "note": "(configuration not stated)", "activity change, positive = activation": "inactive: -8.3% and inactive: -32.1%"},
      {"compound": "O=C(O)COc1nc(Cl)c(Cl)cc1Cl", "activity change, positive = activation": "inactive: -11.4% [at 116 µM, percent change from vehicle, -100% = no light]"},
      {"compound": "C#C[C@]1(O)CC[C@H]2[C@@H]3CCC4=CC(=O)CC[C@]4(C)[C@H]3CC[C@@]21C", "activity change, positive = activation": "inactive: -61%"},
      {"compound": "C[C@@H]1[C@@H](C(=O)C[C@H]2O[C@@H]3O[C@]4(C)CC[C@@H]5[C@H](C)CC[C@@H]([C@H]2C)[C@@]35OO4)O[C@@H]2O[C@]3(C)CC[C@H]4[C@H](C)CC[C@@H]1[C@@]24OO3", "activity change, positive = activation": "inactive: -19%"},
      {"compound": "CC(C)[N+](C)(CCC(C(N)=O)(c1ccccc1)c1ccccc1)C(C)C", "activity change, positive = activation": "inactive: -2.71%"},
      {"compound": "C[C@]12COC(=O)C[C@@H]1CC[C@@H]1[C@H]2CC[C@@]2(C)[C@H]1CC[C@]2(C)O", "activity change, positive = activation": "inactive: -13%"},
      {"compound": "C[C@H]1[C@@H]2Cc3ccc(O)cc3[C@@]1(C)CCN2C", "activity change, positive = activation": "inactive: -13.4% [at 288 µM]"},
      {"compound": "O=c1[nH]c2ccccc2n1CCCN1CCC(n2c(=O)[nH]c3cc(Cl)ccc32)CC1", "activity change, positive = activation": "inactive: -17.2% and inactive: -12.6%"},
      {"compound": "COP(=S)(OC)Oc1ccc(SC)c(C)c1", "activity change, positive = activation": "inactive: -2.5%"},
      {"compound": "Cc1ccc(NC(=O)N(Cc2ccc3c(c2)OCO3)C2CCN(Cc3ccccc3)CC2)cc1Cl", "activity change, positive = activation": "inactive: -24.8%"},
      {"compound": "C[C@]12C=CC(=O)C=C1CC[C@@H]1[C@@H]2CC[C@@]2(C)[C@H]1CC[C@]2(C)O", "activity change, positive = activation": "inactive: -31.6%"},
      {"compound": "CC=C(C)C(=O)O[C@H]1C(C)=C2[C@@H]3OC(=O)[C@@](C)(O)[C@@]3(O)[C@@H](OC(=O)CCC)C[C@](C)(OC(C)=O)[C@@H]2[C@@H]1OC(=O)CCCCCCC", "activity change, positive = activation": "inactive: -33%"},
      {"compound": "C[C@]12CC[C@H]3[C@@H](CCC4=CC(=O)CC[C@@H]43)[C@@H]1CC[C@@H]2O", "activity change, positive = activation": "inactive: -17.2%"},
      {"compound": "COc1cccc(/C=C/c2nc3ccccc3c(=O)n2-c2ccc(Cl)cc2)c1OC", "activity change, positive = activation": "inactive: -17.2% [at 57.5 µM, percent change from vehicle, -100% = no light]"},
      {"compound": "CCCC12CN3CC(CCC)(CN(C1)C3c1ccccn1)C2=O", "note": "(configuration not stated)", "activity change, positive = activation": "inactive: 6.45% [at 57.5 µM, percent change from vehicle, -100% = no light]"},
      {"compound": "CC(C)[C@H]1C(=O)N[C@H](CO)Cc2c[nH]c3cccc(c23)N1C", "activity change, positive = activation": "inactive: -27.8%"},
      {"compound": "CC(C)(N)Cc1ccc(Cl)cc1", "activity change, positive = activation": "inactive: -2.95%"},
      {"compound": "COCCOCCO", "activity change, positive = activation": "inactive: -3.13% [at 116 µM]"},
      {"compound": "Cc1ccc(-n2c(/C=C/c3cccs3)nc3ccccc3c2=O)cc1C", "activity change, positive = activation": "inactive: -27.8%"},
      {"compound": "COc1ccc(CN2CCNCC2)c(OC)c1OC", "activity change, positive = activation": "inactive: -0.23%"},
      {"compound": "CCOc1ccc2nc(NC(=O)c3cccn(Cc4ccccc4)c3=O)sc2c1", "activity change, positive = activation": "inactive: -25% [at 57.5 µM, percent change from vehicle, -100% = no light]"}
    ]}
  ]
}
